{"source": "PubChem BioAssay AID588591", "about": "(National Center for Advancing Translational Sciences (NCATS), 2011)", "note": "In all, about 390,000 compounds went through this assay and about 4,700 (1.2%) were called active. Inconclusive results, whose numbers are uncertain, are shown with a selection of clear calls. Calls come from the whole dose curve; as a rule, active = well fitted inhibition curve with a large enough effect; inconclusive = small, poorly fitted or top-dose-only effect, or another doubt; inactive = no such curve, though single readings can be large or run the other way. Where the call is inconclusive, the potency comes from a doubtful curve fit. Potency is the fitted concentration of half-maximal effect; tags give direction and shape of the fitted curve."}
{"molecular_target": "DNA polymerase eta (Homo sapiens) (UniProt Q9Y253)", "sequence (Q9Y253 whole entry, looked up)": "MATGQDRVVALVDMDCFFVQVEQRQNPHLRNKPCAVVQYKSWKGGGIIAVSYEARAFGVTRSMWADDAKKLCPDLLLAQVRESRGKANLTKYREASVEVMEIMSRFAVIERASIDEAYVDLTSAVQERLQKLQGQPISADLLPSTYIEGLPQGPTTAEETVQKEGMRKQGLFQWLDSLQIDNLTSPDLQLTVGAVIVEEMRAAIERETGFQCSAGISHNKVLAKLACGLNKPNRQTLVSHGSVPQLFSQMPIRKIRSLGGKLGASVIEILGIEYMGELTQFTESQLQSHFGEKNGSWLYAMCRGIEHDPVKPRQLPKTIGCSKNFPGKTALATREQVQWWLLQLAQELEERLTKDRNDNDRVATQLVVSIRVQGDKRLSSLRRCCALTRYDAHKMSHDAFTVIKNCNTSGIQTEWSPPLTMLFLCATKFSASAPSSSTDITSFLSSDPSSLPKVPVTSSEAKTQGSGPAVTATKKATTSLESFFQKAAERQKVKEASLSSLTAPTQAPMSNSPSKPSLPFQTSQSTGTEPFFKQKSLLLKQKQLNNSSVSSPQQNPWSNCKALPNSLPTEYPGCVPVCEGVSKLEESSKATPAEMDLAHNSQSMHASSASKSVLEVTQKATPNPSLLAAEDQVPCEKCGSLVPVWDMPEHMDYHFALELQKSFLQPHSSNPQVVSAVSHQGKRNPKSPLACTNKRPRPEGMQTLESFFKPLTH", "assay": "qHTS for Inhibitors of Polymerase Eta", "details": "recombinant Pol eta, fluorescent DNA replication assay; series mostly up to 114 µM", "in_short": "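Pol eta at 10 nM preincubated with compounds 15 min at room temperature; reaction started with fluorescent substrate (50 nM final) and read kinetically at 0 and 10 min.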"}
{"smiles": "CCCSC1=N/C(=C\\c2ccc([N+](=O)[O-])o2)C(=O)S1", "Potency": "inconclusive: 17.8 µM [inhibitor, full curve, poor fit]"}
{"smiles": "O=C(O)CSc1cc(C(=O)c2cc(F)ccc2O)cn2c(=O)c3c(-c4ccccc4)csc3nc12", "Potency": "active: 22.4 µM"}
{"smiles": "CC(C)CC1C(=O)N(Cc2cn(CC3CCCCC3)nn2)CCS(=O)(=O)N1Cc1ccc(-c2ccncc2)cc1", "note": "(configuration not stated)", "Potency": "inactive"}
{"smiles": "CC(=O)N1N=C(c2ccc(Br)cc2)CC1c1cccc([N+](=O)[O-])c1", "note": "(configuration not stated)", "Potency": "inactive"}
{"smiles": "Cc1ccc(O)c(C=Nc2ccc3[nH]ncc3c2)c1", "Potency": "inconclusive: 22.4 µM [inhibitor, partial curve, poor fit]"}
{"smiles": "O=C(Cc1cccs1)Nc1nnc(SCC(=O)NC2CCCCC2)s1", "Potency": "inconclusive: 17.8 µM [inhibitor, partial curve, poor fit]"}
{"smiles": "C=CCSc1nnc2nc3[nH]c4c(C)cccc4c3nn12", "Potency": "inconclusive: 20 µM [inhibitor, partial curve, poor fit]"}
{"smiles": "COc1cc(NC(=O)c2cc3nc(C4CC4)cc(C(F)(F)F)n3n2)c(OC)cc1Cl", "Potency": "inconclusive: 28.2 µM [inhibitor, partial curve, poor fit]"}
{"smiles": "CCN(c1ccccc1)S(=O)(=O)c1nnc(NC(=O)c2ccccc2OC)s1", "Potency": "inconclusive: 89.1 µM [inhibitor, partial curve, poor fit]"}
{"smiles": "CC(Nc1nc(-c2ccc(F)cc2)cs1)c1nc2cc(C(F)(F)F)ccc2n1CCCO", "note": "(configuration not stated)", "Potency": "inconclusive: 79.4 µM [inhibitor, partial curve, poor fit]"}
{"smiles": "CCN(CC)C(=O)c1c[nH]c2ccc(S(=O)(=O)Nc3cc(C)cc(C)c3)cc2c1=O", "Potency": "inconclusive: 31.6 µM [inhibitor, single point]"}
{"smiles": "COCCCN1C(=O)C(=O)/C(=C(/O)c2ccc(OC(C)C)cc2)C1c1ccncc1", "note": "(configuration not stated)", "Potency": "inactive"}
{"smiles": "COc1cc(NC(=O)COC(=O)c2ccc(S(=O)(=O)N3CC(C)CC(C)C3)cc2)c(C)cc1[N+](=O)[O-]", "note": "(configuration not stated)", "Potency": "inconclusive: 39.8 µM [inhibitor, partial curve]"}
{"smiles": "O=S(=O)(NCC(O)COCc1ccco1)c1cccs1", "note": "(configuration not stated)", "Potency": "active: 20 µM"}
{"smiles": "COc1ccc(NC(=O)CSc2nc(-c3cc(OC)c(OC)c(OC)c3)[nH]c2-c2ccc(F)cc2)cc1", "Potency": "inactive"}
{"smiles": "COc1ccc2c(c1)c(=O)oc1cc3occ(C(C)(C)C)c3cc12", "Potency": "inconclusive: 20 µM [inhibitor, partial curve, poor fit]"}
{"smiles": "CC(C)CNS(=O)(=O)c1ccc(CCC(=O)Nc2cc(Cl)ccc2Oc2ccccc2)cc1", "Potency": "inconclusive: 89.1 µM [inhibitor, partial curve, poor fit]"}
{"smiles": "Cc1nc(N=Nc2cc(S(=O)(=O)O)c3cc([N+](=O)[O-])cc(S(=O)(=O)O)c3c2)c(COP(=O)(O)O)c(C=O)c1O", "Potency": "active: 0.631 µM"}
{"smiles": "NC1=NC(=O)/C(=C/c2cccc(F)c2)S1", "Potency": "inactive"}
{"smiles": "NC(=S)N/N=C/c1coc2c(ccc3ccccc32)c1=O", "Potency": "inconclusive: 2.82 µM [inhibitor, full curve, poor fit]"}
{"smiles": "O=C(C#Cc1ccccc1)Nc1cccc(F)c1", "Potency": "inactive"}
{"smiles": "COC(=O)c1sccc1NC(=O)c1cccc(OC)c1", "Potency": "inconclusive: 20 µM [inhibitor, full curve, poor fit]"}
{"smiles": "Cc1cccc(C(=O)Oc2ccc(/C=N/NC(=O)c3cc(O)cc(O)c3)cc2)c1", "Potency": "active: 7.94 µM"}
{"smiles": "CCc1ccc(OCCOCC(O)CN2CCN(Cc3ccc(Cl)cc3)CC2)cc1", "note": "(configuration not stated)", "Potency": "inconclusive: 89.1 µM [inhibitor, partial curve, poor fit]"}
{"smiles": "COc1ccc(NC(=O)/C=C/c2ccc(C)o2)cc1S(=O)(=O)N1CCOCC1", "Potency": "inconclusive: 25.1 µM [inhibitor, partial curve]"}
{"smiles": "O=C(Nc1ccc2c(c1)OCCO2)c1ccccc1F", "Potency": "inactive"}
{"smiles": "CC(=O)Nc1nc(-c2ccc(Cl)cc2)ns1", "Potency": "inactive"}
{"smiles": "CCC(=O)N1CCc2cc(Br)cc(S(=O)(=O)NCCN3CCCCC3CC)c21", "note": "(configuration not stated)", "Potency": "inconclusive: 17.8 µM [inhibitor, partial curve]"}
{"smiles": "Cc1nn(-c2ccc(F)cc2)c(Cl)c1/C=N/NC(=O)c1cccc(S(=O)(=O)N2CCCC2)c1", "Potency": "inconclusive: 10 µM [inhibitor, full curve, poor fit]"}
{"smiles": "COc1cccc(OC)c1C(=O)Nc1cccc(C(=O)Nc2cccc(C(=O)O)c2)c1", "Potency": "inconclusive: 89.1 µM [inhibitor, partial curve, poor fit]"}
{"smiles": "CC(=O)N=c1sc2ccccc2n1C", "Potency": "inactive"}
{"smiles": "CCOc1ccc(OCCOC(=O)CN(C)S(=O)(=O)c2ccc(NC(C)=O)cc2)cc1", "Potency": "inconclusive: 39.8 µM [inhibitor, partial curve, poor fit]"}
{"smiles": "Cn1cc(/C=N/NC(=O)c2cc3cc(Br)ccc3o2)c2ccccc21", "Potency": "inactive"}
{"smiles": "N#C/C(=C\\c1ccccc1OCc1ccc(C(=O)O)cc1)c1ccccc1", "Potency": "inactive"}
{"smiles": "C=C(C)COc1ccc(-c2ncncc2Oc2ccc(OC)cc2)c(O)c1", "Potency": "inconclusive: 50.1 µM [inhibitor, partial curve, poor fit]"}
{"smiles": "CCCCCn1c(-c2ccco2)nc2nc3ccccc3nc21", "Potency": "inconclusive: 31.6 µM [inhibitor, partial curve, poor fit]"}
{"smiles": "Cc1ccc(C)c(OCC(=O)Nc2ccc(S(=O)(=O)Nc3onc(C)c3C)cc2)c1", "Potency": "inactive"}
{"smiles": "Cc1ccc(OCC(=O)Nc2ccccc2C(=O)OCc2cc(=O)n3ccsc3n2)cc1", "Potency": "inconclusive: 100 µM [inhibitor, partial curve, poor fit]"}
{"smiles": "CN(Cc1ccco1)C(=O)CSc1nn2c(=O)c(C(C)(C)C)nnc2s1", "Potency": "active: 79.4 µM"}
{"smiles": "CCCNC(=O)c1oc2ccc3c(c2c1C)C(=O)CC(C)(C)O3", "Potency": "inconclusive: 7.08 µM [inhibitor, partial curve, poor fit]"}
{"smiles": "NC(=S)c1cc2ccc(O)cc2oc1=O", "Potency": "inactive"}
{"smiles": "COc1ccc(NC(=O)c2cc3c(s2)-c2c(C)cccc2OC3)cc1Cl", "Potency": "inconclusive: 89.1 µM [inhibitor, single point]"}
{"smiles": "N#CCC(=O)Nc1ccc(C(=O)OCC(=O)NC2CCCc3ccccc32)cc1", "note": "(configuration not stated)", "Potency": "active: 39.8 µM"}
{"smiles": "CC/C=C\\C/C=C\\C/C=C\\CCCCCCCC(=O)O", "Potency": "active: 7.94 µM"}
{"smiles": "CN(C)CCCNc1cc(N2CCN(C3CCCCC3)CC2)c2noc3c2c1C(=O)c1ccccc1-3", "Potency": "inconclusive: 89.1 µM [inhibitor, partial curve, poor fit]"}
{"smiles": "N#Cc1cccc2c1-c1ccccc1/C2=N/NC(N)=S", "Potency": "inconclusive: 79.4 µM [inhibitor, partial curve]"}
{"smiles": "Cc1ccccc1OCCSc1nc2ccc(NC(=O)c3cccc(F)c3)cc2s1", "Potency": "inactive"}
{"smiles": "CC(=O)Nc1ccc(-c2ccc(NC(C)=O)c(O)c2)cc1O", "Potency": "active: 35.5 µM"}
{"smiles": "O=C(CCC(=O)c1cccs1)NCc1ccccc1Cl", "Potency": "inconclusive: 31.6 µM [inhibitor, partial curve, poor fit]"}
{"smiles": "COc1cc(/C=C2/SC(=S)N(Cc3ccccc3)C2=O)ccc1OS(C)(=O)=O", "Potency": "inactive"}
{"smiles": "Cc1cccc(NC(=O)C2CCCN2S(=O)(=O)c2ccc3nc(-c4ccccc4)[nH]c3c2)c1", "note": "(configuration not stated)", "Potency": "active: 79.4 µM"}
{"smiles": "Cc1ccc(NC(=O)CN(C)C(=O)c2cccc(S(=O)(=O)NCc3ccco3)c2)cc1", "Potency": "inconclusive: 39.8 µM [inhibitor, partial curve]"}
{"smiles": "CCOC(=O)c1c(NC(C)=O)sc2c1CCC(C=NCCCN(CC)CC)=C2Sc1ccccc1", "Potency": "inconclusive: 35.5 µM [inhibitor, partial curve, poor fit]"}
{"smiles": "Cn1c(=O)oc2cc(S(=O)(=O)CCC(=O)N3CCN(c4cccc(Cl)c4)CC3)ccc21", "Potency": "inactive"}
{"smiles": "N#C/C(=C\\c1ccc(OC(=O)c2ccc(Cl)s2)cc1)c1nc2ccccc2[nH]1", "Potency": "inconclusive: 11.2 µM [inhibitor, partial curve, poor fit]"}
{"smiles": "CCCn1nc(C(=O)Nc2ccc(S(=O)(=O)Nc3ncccn3)cc2)c2ccccc2c1=O", "Potency": "active: 50.1 µM"}
{"smiles": "COc1c(C)cccc1C(=O)Nc1ccc(-c2nc3ccccc3s2)c(Cl)c1", "Potency": "inactive"}
{"smiles": "COc1ccc(-c2nc3sc(CCNC(=O)C(=O)Nc4cccc(NC(C)=O)c4)c(C)n3n2)cc1", "Potency": "inconclusive: 89.1 µM [inhibitor, partial curve]"}
{"smiles": "COC(=O)c1cc2c(n1S(=O)(=O)c1ccc(C)cc1)C(=O)C(=O)c1[nH]cc(C(=O)OCc3ccccc3)c1-2", "Potency": "inconclusive: 15.8 µM [inhibitor, partial curve, poor fit]"}
{"smiles": "O=[N+]([O-])c1ccc2c(c1)N([O-])C1(CCCCC1)[N+]2=O", "Potency": "active: 22.4 µM"}
{"smiles": "Cc1cccc(NC(=O)Cn2c(O)c(N=NC(=O)c3ccccc3O)c3ccccc32)c1", "Potency": "active: 44.7 µM"}
{"smiles": "Cc1ccc2c(c1)c(C)c(C)n2CC(O)Cn1nc(C)c(Br)c1C", "note": "(configuration not stated)", "Potency": "inconclusive: 56.2 µM [inhibitor, partial curve, poor fit]"}
{"smiles": "Oc1ccc(Cl)cc1-c1cc(-c2ccco2)[nH]n1", "Potency": "inconclusive: 14.1 µM [inhibitor, full curve, poor fit]"}
{"smiles": "COc1ccc(OCC(=O)NC2CCCc3ccccc32)cc1", "note": "(configuration not stated)", "Potency": "inconclusive: 89.1 µM [inhibitor, partial curve, poor fit]"}
{"smiles": "CCN(c1ccccc1)c1nc(C#N)nc(N(CC)c2ccccc2)n1", "Potency": "inconclusive: 89.1 µM [inhibitor, partial curve, poor fit]"}
{"smiles": "Oc1ccc(/C=N/Nc2ccnc3cc(Cl)ccc23)c(O)c1O", "Potency": "inconclusive: 20 µM [inhibitor, full curve]"}
{"smiles": "COc1ccc([N+](=O)[O-])cc1NC(=O)C(C)OC(=O)Cc1ccc(OC)c(OC)c1", "note": "(configuration not stated)", "Potency": "inconclusive: 0.562 µM [inhibitor, full curve, poor fit]"}
